Assay results: a compilation of properties of binary mixtures (doi:10.1016/j.jct.2007.01.007)
Some of these densities may be calculated back from excess volumes.

Experiment: xn = mol fraction of the nth substance listed
Conditions: 298 K, 101 kPa

CCCC[n+]1ccn(C)c1.F[B-](F)(F)F + O
Conditions | mass density [kg/m3]
x1 = 0.0016 | 1000.3
x2 = 0.1641 | 1195.3
x2 = 0.1829 | 1194.6
x2 = 0.3722 | 1185.6
x2 = 0.4732 | 1180.2
x2 = 0.5927 | 1169.7
x2 = 0.599 | 1168.4
x2 = 0.601 | 1168.2
x2 = 0.6984 | 1156.8
x2 = 0.8398 | 1125.6
x2 = 0.8432 | 1124.5
x2 = 0.8448 | 1124
x2 = 0.8459 | 1123.6
x2 = 0.8763 | 1111.1
x2 = 0.8905 | 1105.1
x2 = 0.8907 | 1105
x2 = 0.8915 | 1104.6
x2 = 0.9412 | 1069.9
x2 = 0.9416 | 1069.5
x2 = 0.9417 | 1069.4
x2 = 0.9423 | 1068.8
x2 = 0.9501 | 1064.2

CCCC[n+]1ccn(C)c1C.F[B-](F)(F)F + O
Conditions | mass density [kg/m3]
x1 = 0.0003 | 997.7
x1 = 0.0012 | 999.4
x1 = 0.0014 | 999.9
x1 = 0.0071 | 1010.2
x1 = 0.0184 | 1027.7
x1 = 0.0186 | 1028.1
x1 = 0.0188 | 1028.3
x2 = 0.3683 | 1178.8
x2 = 0.4407 | 1173.7
x2 = 0.4546 | 1172.9
x2 = 0.4666 | 1172.2
x2 = 0.4894 | 1170.6
x2 = 0.5017 | 1170.9
x2 = 0.5714 | 1165.2
x2 = 0.7021 | 1150.7
x2 = 0.7796 | 1137
x2 = 0.7924 | 1134.4
x2 = 0.8502 | 1118.6
x2 = 0.8516 | 1118.1
x2 = 0.8534 | 1117.5
x2 = 0.8549 | 1116.9
x2 = 0.8816 | 1106.9
x2 = 0.8825 | 1106.5
x2 = 0.8826 | 1106.5
x2 = 0.8856 | 1105.2
x2 = 0.9248 | 1081.5
x2 = 0.9253 | 1081.2
x2 = 0.9258 | 1080.9
x2 = 0.9267 | 1080.3
x2 = 0.9271 | 1080.1
x2 = 0.9314 | 1077.8
x2 = 0.9633 | 1050.4
x2 = 0.9634 | 1050.3
x2 = 0.9638 | 1049.9
x2 = 0.964 | 1049.7
x2 = 0.9641 | 1049.5
x2 = 0.9711 | 1041.3
x2 = 0.98 | 1029.9
